The values that follow come from ChEMBL document CHEMBL4888484, “Replenishing the malaria drug discovery pipeline: Screening and hit evaluation of the MMV Hit Generation Library 1 (HGL1) against asexual blood stage Plasmodium falciparum ,using a nano luciferase reporter read-out” (2022).

As usually defined, the % Inhibition is the change of the read-out against control, counted positive when it falls.

About 540 (0.36%) of roughly 150,000 compounds showed an effect of 50% or more. The list shows a part of the results.

The test system of this test is Plasmodium falciparum. The test is described as follows: Primary screen in NF54 nanoGlo assay, in single point, at 2uM, 72h; a lower Z score goes with more inhibition. To be noted: timepoint 72 hour. Type of test: functional, Erythrocyte.
For `CC(C)c1csc([C@H]2CCCN(Cc3ccc(C(=O)O)cc3F)C2)n1`, the “% Inhibition” value is reported as -12% and the Z score came out at 2.02.
In the same order, the values of `Cc1n[nH]c(C)c1CCN(C)Cc1nc(CC2CC2)no1` are -10% and 1.48.
The matching figures for `Cc1nc(-c2ccccc2F)sc1CNC(=O)c1cc(-c2cccs2)nn1C`: 0% and -0.08.
Regarding `CCNC(=O)c1nn(Cc2ccccc2)c2c1C[C@@H](N1CCC(C(N)=O)CC1)CC2`, the “% Inhibition” value is recorded as -2% and the Z score amounted to 0.2.
In the same order, the values of `Brc1cnn(Cc2nc(-c3ccoc3)no2)c1` are -11% and 1.25.
`COc1ccc(N2CCN(c3nccc4ccc(C(=O)NCCCN5CCOCC5)cc34)CC2)cc1`: the “% Inhibition” value came to 7% and the Z score is on record as -0.81.
As to `C[C@@H]1CN(C(=O)CN(Cc2ccsc2)C2CCCC2)C[C@H](C)O1`, the “% Inhibition” value is given as 1% and the Z score is -0.25.
In the same order, the values of `CC1CC(C)CN(S(=O)(=O)c2ccc(Cl)c(C(=O)NCC(c3ccco3)N3CCCC3)c2)C1` (configuration not stated) are -16% and 3.09.
In the same order, the values of `COc1cccc(CN2CCc3c(c(C(=O)N4CCNC(=O)C4)nn3Cc3ccccc3)C2)c1` are 5% and -0.86.
For `NC(=O)[C@@H]1C[C@@H](F)CN1CC1=CCCCC1`, the “% Inhibition” value is recorded as -17% and the Z score was found to be 2.17.
With `NC(C(=O)NC1CCCCCC1c1ccccc1C(F)(F)F)C1CCCO1` (configuration not stated), the “% Inhibition” value is given as -11% and the Z score stood at 1.19.
On to `COc1ccc(-c2ccc(C(=O)N3CCCCC3)cn2)c(-n2cccn2)c1`, for which the “% Inhibition” value is -13% and the Z score was determined as 1.7.
In the same order, the values of `COc1cccc(CN(C)CC2CCCC2)c1OC[C@@H](O)CN1CCOCC1` are -1% and 0.17.
As to `Cc1cc(C(=O)N[C@H]2CCN(Cc3cscn3)C[C@@H]2O)sc1C`, the “% Inhibition” value is given as -6% and the Z score stood at 1.2.
Regarding `O=S(=O)(C[C@H]1CCOC1)NCCc1ccsc1`, the “% Inhibition” value was -11% and the Z score was 1.82.
For the molecule `O=C(Nc1ccc(OCC2CCCCC2)cc1)N1CC[C@H](O)C1`, the “% Inhibition” value is given as -6% and the Z score is reported as 0.87.
As to `Cc1c(N[C@@H](C)C(=O)Nc2ccc3ccccc3c2)c(=O)n(-c2ccccc2)n1C`, the “% Inhibition” value is reported as -1% and the Z score came to 0.18.
In the case of `CCn1c(C)ccc(C(=O)NCCn2ccnn2)c1=O`, the “% Inhibition” value is given as -4% and the Z score is on record as 0.77.
The matching figures for `Cc1ccccc1Nc1nc(N)nc(CN2C(=O)N[C@](C)(c3ccccc3Cl)C2=O)n1`: 8% and -0.93.
Consider `Cc1ncccc1C(=O)N1CC[C@H](c2ccc(F)cc2)[C@@H](O)C1`, for which the “% Inhibition” value is recorded as -5% and the Z score is given as 1.02.
The matching figures for `CS(=O)(=O)CC(=O)c1ccc(C(F)(F)F)nc1`: -4% and 0.58.
The matching figures for `CCN1CCN(C(=O)c2cnc(-c3ccccc3)nc2)[C@H]2CS(=O)(=O)C[C@H]21`: 10% and -1.61.
In the same order, the values of `CCc1nc(CNc2ccc(Br)cc2C(=O)NC)n[nH]1` are -17% and 2.39.
For `O=C1COc2ccc(N3C(=O)c4ccccc4C3=O)cc2N1`, the “% Inhibition” value is given as 29% and the Z score is recorded as -3.68.
For the molecule `CC(C)(C)c1nc(Cn2ccnc2[C@@H](O)c2ccco2)co1`, the “% Inhibition” value is recorded as 2% and the Z score is recorded as -0.44.
In the same order, the values of `Cc1nn(C)c(S(=O)(=O)N(C2CC2)C2COC2)c1C(F)F` are -13% and 1.2.
The matching figures for `c1ccc2c(c1)C[C@H](CNCc1cc3ccccc3nc1N1CCCCC1)O2`: -2% and 0.23.
In the same order, the values of `CCN(C(=O)c1ccc(Cn2cncn2)cc1)c1ccccc1C` are -7% and 0.86.
Regarding `COc1ccc(CN2C(=O)O[C@H]3CN(c4cnccn4)C[C@H]32)cc1OC`, the “% Inhibition” value was -15% and the Z score was found to be 1.29.
On to `Cc1cc(NC(=O)C(=O)N[C@@H](C)C(C)(C)C)n(C)n1`, for which the “% Inhibition” value turned out to be 7% and the Z score is -0.7.
As to `CC(C)(C)CN1CCN(c2cccc3c2C(=O)N(c2cccc(Cl)c2)C3=O)CC1`, the “% Inhibition” value was 2% and the Z score was -0.38.
Regarding `FC(F)(F)c1nnc(NCc2cccc(-c3nnc[nH]3)c2)s1`, the “% Inhibition” value is given as -5% and the Z score is 0.55.
The matching figures for `CN(C)C(=O)N1CCC[C@H]2C(=O)N(Cc3ccccc3)C(=O)[C@H]21`: -9% and 0.79.
As to `O=C(c1cnccn1)N1CC[C@H](c2nc(C3CC3)no2)C1`, the “% Inhibition” value is reported as -7% and the Z score amounted to 0.77.
In the same order, the values of `COc1cccc(C(=O)N2CCN(C(=O)CCc3scnc3C)CC2)c1` are -1% and 0.08.
As for `CC(C)N1C[C@@H](NC(=O)CCC(=O)Nc2cccc(O)c2)CC1=O`, the “% Inhibition” value is recorded as -13% and the Z score was determined as 2.02.
Consider `Cc1noc([C@H]2CN(C(=O)c3n[nH]c4ccccc34)CC23CCN(C)CC3)n1`, for which the “% Inhibition” value is on record as -7% and the Z score was found to be 0.8.
For the molecule `Cc1ccc2c(n1)OCCN2Cc1nnc(C(C)C)n1C`, the “% Inhibition” value is listed as -14% and the Z score stood at 1.27.
The matching figures for `COCCCN(Cc1c[nH]nc1-c1ccc(F)cc1)C1CCN(C)CC1`: 4% and -0.58.
In the same order, the values of `Cc1ccc(CCNC(=O)N2CCc3[nH]nc(C)c3C2)cc1` are -8% and 1.02.
For `CN1CCCNC(=O)C12CCN(C(=O)c1ccc(Cl)s1)CC2`, the “% Inhibition” value is -11% and the Z score was found to be 1.75.
